Measurements published in the supplement of paper PMC3334620.
The full ranking holds about 33,000 sequences; the median of “E-score (-0.5 to 0.5)” is about -0.041, and the highest 2% start at about 0.37. Some of the results follow.

Molecular target: T1, Ecm22 (UniProt Q05958)
T1 sequence: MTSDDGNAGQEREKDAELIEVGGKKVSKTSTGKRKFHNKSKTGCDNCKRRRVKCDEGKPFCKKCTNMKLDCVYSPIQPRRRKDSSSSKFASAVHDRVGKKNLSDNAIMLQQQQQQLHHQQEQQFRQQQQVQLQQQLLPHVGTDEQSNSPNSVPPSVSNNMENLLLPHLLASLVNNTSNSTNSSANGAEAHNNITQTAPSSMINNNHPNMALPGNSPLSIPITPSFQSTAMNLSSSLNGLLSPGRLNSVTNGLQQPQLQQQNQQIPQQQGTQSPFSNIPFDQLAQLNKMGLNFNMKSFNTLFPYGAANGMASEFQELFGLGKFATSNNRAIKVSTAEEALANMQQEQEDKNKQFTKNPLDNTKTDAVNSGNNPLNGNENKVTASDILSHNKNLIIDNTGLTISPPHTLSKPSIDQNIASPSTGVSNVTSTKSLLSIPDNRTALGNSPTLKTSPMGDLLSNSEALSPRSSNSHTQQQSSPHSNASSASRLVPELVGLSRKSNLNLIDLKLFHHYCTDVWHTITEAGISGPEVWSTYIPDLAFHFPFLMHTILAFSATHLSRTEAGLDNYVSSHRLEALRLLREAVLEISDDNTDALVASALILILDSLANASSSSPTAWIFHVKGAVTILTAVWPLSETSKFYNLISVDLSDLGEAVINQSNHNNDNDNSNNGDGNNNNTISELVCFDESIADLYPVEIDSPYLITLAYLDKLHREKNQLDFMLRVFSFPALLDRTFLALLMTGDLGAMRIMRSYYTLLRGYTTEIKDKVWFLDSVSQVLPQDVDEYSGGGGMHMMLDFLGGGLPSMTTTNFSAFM
Test: PBM E-score (8-mer binding enrichment) (E-score (-0.5 to 0.5)); higher = stronger / more preferred TF binding; most listed sequences are background and not binding sites
Details: protein concentration: 200 nM; construct: GST-full length
Method in brief: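 Each ungapped eight-base word and its reverse complement, pooled, received an E-score from the Universal PBM Analysis Suite. Underlying scans, normalised with masliner, recorded fluorescent anti-GST bound to GST-tagged yeast transcription factors. These were applied at about 100-200 nM to universal all-10-mer Agilent arrays double-stranded by primer extension.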

Sequence	PBM E-score
CATCCAGG	-0.383
CACTATAA	-0.153
ATATACTC	0.00817
AGCGTATA	0.366
AAGCCGGC	-0.34
GCGGTCTA	0.0621
CCAAGGTC	-0.271
AGCAATTG	-0.223
ACGCAGCT	0.125
GGTAGGAA	-0.216
ATCAAAAT	-0.00116
AACGTTCA	0.0914
AGGGCATC	-0.234
CATGCGTA	0.23
TGCACGCA	-0.0249
CCAAGAAA	-0.242
AATACTAA	0.134
ATCTGATC	-0.0345
CCGTCGCC	-0.097
ACGGACTA	-0.0134
GGTGAATA	-0.266
AAACAGAC	-0.031
CGCTTAAG	0.223
TAACCGAA	0.285

Sequence	PBM E-score
AACATGCC	0.0142
CCGCTACA	-0.0208
ATTACCAA	-0.211
GCAAGTCC	-0.212
CTCGGGCA	0.0983
ATGACTCC	-0.268
CGAGCCGA	0.218
AGACCATA	0.101
CTTAGTGA	-0.137
AAGGGCCG	-0.056
GGTACCCA	-0.145
AGAAACCC	-0.238
AGCAGCCA	-0.187
TAATGTAA	-0.044
GACTTGAA	0.0599
CCCTGAAG	-0.145
AAAGGGAT	-0.167
AGCCTCGA	0.0784
GCTTACAA	-0.144
CTCTCCTC	-0.177
ACCCGCGG	0.0174
CGTTCTAC	0.303
AGAAAGCC	-0.0565
TACCCGCA	0.0887

Sequence	PBM E-score
CAATGGAG	-0.277
CAAGAAAA	-0.106
AGTCACCG	-0.00376
CGGTGGAC	-0.158
GACATGGA	-0.0123
CCTGGAGA	-0.141
CCTCCTCC	-0.0777
GATGTGAC	0.036
CACTCGAG	0.137
GATCGATC	0.171
CCCTGGGA	-0.307
CAACTACA	-0.064
GCCAGCCA	-0.151
ATGTACCA	0.0738
CTTTTCAA	-0.1
CAAAGAGC	-0.0963
GGAGCCCC	-0.112
ATTCAGCA	-0.119
CGTAGACA	0.118
TGCCCCAA	-0.138
GAGGTTAC	0.0471
CCTTGTGC	-0.193
CGCCGAGC	0.0279
GAAAATAC	0.108

Sequence	PBM E-score
AAATCATG	-0.15
CCGTAAAG	0.323
GGCGCCCA	-0.0786
CTGGTGGA	-0.206
GGGGGAAA	-0.188
CTAAATGC	-0.0645
AAAGGGAA	-0.0636
CAGTATAC	0.204
AACGAATG	0.429
CAAATACG	0.277
CGGGGTTC	0.00936
AGGTTGCA	-0.146
ATCCGAGG	0.187
AAATCGAA	-0.0101
CAGACAAG	-0.0687
GATGGTTA	0.131
CAGGCCAG	0.0615
CCAGGAGG	-0.215
CAACAGAA	-0.195
ATTAGAAG	-0.0466
AATCGATG	0.0335
AAAGGTAC	0.0997
